In PubChem BioAssay AID504832 (National Center for Advancing Translational Sciences (NCATS), 2011):
The campaign covered roughly 310,000 compounds. About 18,000 (5.8%) were called active. Calls come from the whole dose curve; as a rule, active = well fitted inhibition curve with a large enough effect; inconclusive = small, poorly fitted or top-dose-only effect, or another doubt; inactive = no such curve, though single readings can be large or run the other way. Inconclusive means that the source gave no clear call. Potencies of inconclusive entries are left out as doubtful fits.

Assay: Primary qHTS for delayed death inhibitors of the malarial parasite plastid, 48 hour incubation
Conditions: P. falciparum luciferase growth in erythrocytes; series mostly up to 28.7 µM
From the text: The goal of this screen is to discover new antimalarial compounds that act by inhibiting the development of the apicoplast in the malarial parasite Plasmodium falciparum. The biochemical processes that make this organelle essential for erythrocytic stage parasites are not well understood. However, antibiotics such as azithromycin and tetracycline, which target the apicoplast translational machinery, have a potent antimalarial effect.
We have developed a cell-based assay that measures parasite growth based on the expression of an integrated copy of a firefly luciferase reporter. To detect small molecules that cause this "delayed death" phenotype, erythrocytes infected with the luciferase-expressing parasites were incubated with compounds for either one or two generations, corresponding to 48 and 96 hours, respectively. Compounds that inhibit parasite growth in the second generation, but not the first, should be enriched in antimalarials that target the apicoplast. Growth inhibition is detected by a decrease in luciferase activity.
Assay Provider: David Fidock and Eric Ekland, Columbia University
Keywords: NIH Roadmap, MLPCN, MLI, MLSMR, qHTS, NCGC, qHTS, malaria, luciferase, viability
Four microliters of culture medium (RPMI 1640 with 0.5% w/v Albumax (GIBCO), 24 mM sodium bicarbonate and 10 ug/mL gentamycin) were dispensed by a Multi-drop Combi into white solid 1536-well plates (Grenier) and 23 nL compound was added by a pin tool. Four microliters of infected erythrocytes (2% hematocrit, 0.1% parasitemia final concentration) in culture medium were dispensed and the plates incubated for 48 hours at 37 C in 5% CO2. Two microliters of luciferase detection reagent was added and luminescence was detected by a ViewLux (PerkinElmer) reader.
Potency is the fitted concentration of half-maximal effect; tags give direction and shape of the fitted curve.

Compound	Potency
Cc1cc(C)cc(-n2cccc2/C=C2/C(=N)N3C(=NC2=O)SN=C3S(C)(=O)=O)c1	inconclusive [inhibitor, single point]
Cc1cc(N2C(=O)C(O)=C(C(=O)c3cc4ccccc4o3)C2c2cccc(Br)c2)no1 (centres undefined)	inconclusive [inhibitor, single point]
COC(=O)c1sc(-c2ccc(C(C)(C)C)cc2)cc1NC(=O)COCC(=O)O	inconclusive [inhibitor, partial curve, poor fit]
CCOC(=O)C1=C(C)N=c2s/c(=C\c3ccc(OCC(=O)O)c(OC)c3)c(=O)n2C1c1ccc(OC)cc1 (centres undefined)	inconclusive [inhibitor, full curve]
